# Data reported in publication PMC4336329 (PLoS ONE, 2015).
# In all, about 310,000 compounds went through this assay and about 2,200 (0.71%) showed an effect of 50% or more. The effect is printed as a negative number. The list shows a part of the results.
# Target: human ether-à-go-go-related gene (hERG) potassium channel (human, UniProt Q12809)
# Experiment: primary screen, population patch clamp on CHO cells stably expressing hERG
# Chain of human ether-à-go-go-related gene (hERG) potassium channel (Q12809 whole entry, looked up): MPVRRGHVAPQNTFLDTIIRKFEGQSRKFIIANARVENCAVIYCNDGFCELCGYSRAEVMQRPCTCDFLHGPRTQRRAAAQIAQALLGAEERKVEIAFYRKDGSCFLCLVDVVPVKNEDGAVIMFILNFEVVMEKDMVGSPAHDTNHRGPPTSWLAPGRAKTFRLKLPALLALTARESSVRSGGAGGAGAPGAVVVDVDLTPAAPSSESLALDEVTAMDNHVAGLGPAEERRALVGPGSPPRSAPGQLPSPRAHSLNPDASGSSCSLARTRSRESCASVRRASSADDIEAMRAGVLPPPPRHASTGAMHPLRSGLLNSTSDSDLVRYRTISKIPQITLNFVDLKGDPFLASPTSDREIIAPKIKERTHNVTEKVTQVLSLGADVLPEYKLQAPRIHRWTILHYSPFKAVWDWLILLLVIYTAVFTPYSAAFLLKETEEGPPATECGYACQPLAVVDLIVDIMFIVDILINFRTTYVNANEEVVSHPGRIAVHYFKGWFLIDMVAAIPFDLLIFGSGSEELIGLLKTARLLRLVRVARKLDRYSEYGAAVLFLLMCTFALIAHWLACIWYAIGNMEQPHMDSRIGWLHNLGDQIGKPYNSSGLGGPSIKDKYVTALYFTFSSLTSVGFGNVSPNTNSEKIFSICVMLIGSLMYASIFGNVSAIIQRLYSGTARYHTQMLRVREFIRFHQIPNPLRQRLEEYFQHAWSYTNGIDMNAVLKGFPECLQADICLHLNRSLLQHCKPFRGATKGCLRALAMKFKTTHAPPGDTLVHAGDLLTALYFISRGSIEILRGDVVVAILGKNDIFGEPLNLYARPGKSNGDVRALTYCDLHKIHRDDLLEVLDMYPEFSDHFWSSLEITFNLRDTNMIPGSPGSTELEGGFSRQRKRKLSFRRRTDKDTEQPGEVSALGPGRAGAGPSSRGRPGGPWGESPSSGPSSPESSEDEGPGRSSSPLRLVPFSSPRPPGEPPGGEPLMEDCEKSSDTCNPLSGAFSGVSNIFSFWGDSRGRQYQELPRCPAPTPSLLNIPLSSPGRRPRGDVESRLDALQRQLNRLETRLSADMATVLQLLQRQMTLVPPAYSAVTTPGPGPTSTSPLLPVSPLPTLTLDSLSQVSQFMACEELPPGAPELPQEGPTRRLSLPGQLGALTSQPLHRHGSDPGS
row,SMILES,"hERG current change (%, negative = inhibition) at 1uM [%]"
1,CCS(=O)(=O)Nc1ccc(C2=NN(C(=O)c3ccco3)C(c3ccco3)C2)cc1 (stereo not shown),-3.36
2,COc1ccc2nc(N3CCCCC3)c(C#N)cc2c1,22.6
3,Cc1ccccc1-c1nc(C#N)c(N2CCC(C)CC2)o1,14.8
4,O=C(O)c1ccc2ncsc2c1,11.5
5,Cn1cc(S(=O)(=O)N2CCN(C(=O)c3ccco3)CC2)c(=O)n(C)c1=O,2.62
6,COc1cccc(-n2c(SCC(=O)NCc3cccs3)nc3ccccc3c2=O)c1,11
7,CCC12CN3CC(CC)(CN(C1)C31C(=O)N(C)c3ccc(C)cc31)C2=O (stereo not shown),16
8,O=C(COc1ccc(Cl)cc1Cl)Nc1ccc(CN2CCCCC2)cc1,-7.07
9,NC(=O)COc1ccc(NC(=O)CC23CC4CC(CC(C4)C2)C3)cc1,17.4
10,CCn1cc(CN2CCC(n3nccc3NC(=O)Cc3ccccc3)CC2)c(C)n1,12.4
11,Cc1csc(NC(CO)c2nc3ccccc3n2CCOCCO)n1 (stereo not shown),12.5
12,Cn1cc(Br)c(C(=O)NC2C3CC4CC(C3)CC2C4)n1 (stereo not shown),-6.31
13,O=C(NN1C(=O)c2ccccc2NC1c1ccccn1)c1ccc(Br)cc1 (stereo not shown),-3.16
14,O=C(NCCCCCCNC(=O)c1ccccc1O)c1ccccc1O,15.1
15,CC(=O)N(Cc1c(C#N)c2ccccc2n1C)c1ccccc1,5.03
16,COc1ccccc1C(=O)CC(=O)C(=O)Nc1cccc([N+](=O)[O-])c1C,4.51
17,CSc1cccc(NC(=O)CCc2ccccc2)c1,14.1
18,Cl.Clc1cccc(CN2C3=NCCCN3c3ccccc32)c1,-46.2
19,Cc1ccc(C)c(/C=N/NC(=S)NC(C)C)c1,20.6
20,CC(C)(C)C(=O)N1c2ccccc2CCc2ccccc21,14.1
21,CCOc1nc(NC(=O)NC(=O)c2ccccc2)nc(-c2ccccc2)n1,7.69
22,CC(C)c1ccc(C(=O)NN2CCOCC2)cc1,-1.52
23,CCCn1c(=O)c2sccc2n2c(CCCC(=O)NCC3CCCO3)nnc12 (stereo not shown),12

row,SMILES,"hERG current change (%, negative = inhibition) at 1uM [%]"
1,COc1ccc(-c2ccccc2)cc1NC(=O)c1ccncc1,11.2
2,CCCN1C(=O)/C(=c2\s/c(=C3\C=Cc4ccccc4N3CC)c(=O)n2-c2ccccc2)SC1=S,10.5
3,COc1ccc2c(c1)c1ncn(Cc3ccc(F)cc3)c(=O)c1n2C,5.9
4,CC(=O)Nc1ccc(OCCOc2ccc(NC(C)=O)cc2)cc1,6.09
5,Cc1[nH]c2ccccc2c1CCN,9.22
6,Cc1ccc(OCCSc2nc3ccccc3n2CCC(=O)O)cc1,15.5
7,Cc1nc2sc(-c3ccccc3)cc2c(=O)n1/N=C/N(C)C,6.86
8,C=CCn1c(SCc2nc3ccccc3[nH]2)nnc1-c1cccc(OC)c1,-0.942
9,COc1ccc(S(=O)(=O)c2c(O)c3ccc(C(=O)Nc4ccccc4Cl)cc3[nH]c2=O)cc1,2.62
10,CCOC(=O)c1ccc(NC(=O)c2nc(SC)ncc2Cl)cc1,11.2
11,COc1ccccc1/C=C/c1nc2ccc(OC(C)=O)cc2c(=O)o1,14.2
12,CCOc1cc(C2C3=C(CC(C)(C)CC3=O)OC3=C2C(=O)CC(C)(C)C3)cc([N+](=O)[O-])c1O,15.7
13,CCOC(=O)c1cc2c(cn1)[nH]c1ccccc12,6.89
14,Cc1ccc(Cl)cc1NC(=O)COC(=O)c1ccc(COc2ccc3c(C)cc(=O)oc3c2)cc1,9.59
15,COc1ccc(/C(C)=C2\SC(=S)N(CCC(=O)O)C2=O)cc1,9.3
16,Cc1cc(=O)oc2c(C)c(OC3CCCCC3=O)ccc12 (stereo not shown),18.8
17,Cc1cc(C)n2cc(CSc3nnc(-c4ccccc4)o3)nc2n1,0.9
18,CCN(CC)C(=O)C1CCCN(Cc2nc(-c3cccs3)no2)C1 (stereo not shown),11.3
19,NC(=NCCc1ccc(Cl)cc1)NS(=O)(=O)c1ccc(F)cc1,10.6
20,CCOc1ccc(C(F)(F)F)cc1NC(=O)COc1ccc(C(F)(F)F)cc1[N+](=O)[O-],15.8
21,Cc1cc(NC(=O)c2ccccc2F)nc2c1c(=O)oc1ccccc12,12.2
22,O=C(NNc1cccc(Cl)n1)Nc1ccccc1Cl,18.6
23,COc1ccc(F)cc1C(=O)C1CCCN(Cc2ccc(Oc3ncccn3)cc2)C1 (stereo not shown),-34.8
